The text below walks through data of paper PMC5892938.

This is one part of the list. At the low end of the ranking the order means little.

The target in the test is GST-SBP-SLBP (stem-loop binding protein) (UniProt Q14493). Nature of the test: targeted RNA Bind-n-Seq.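 Note: DESeq read counts versus GST-SBP nonspecific binding control pulldown.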 Particulars: RBNS binding buffer: 25 mM Tris pH 7.5, 150 mM KCl, 3 mM MgCl2, 0.1% Tween, 0.5 mg/mL BSA, 1 mM DTT; 27 nM protein, 750 pM RNA pool; temperature not stated; high values mean tight binding.
With “GGUCACGUCUCAAUCAACUCUUCUUCCAGGGAAAUCCCUGGCUUUUUCAACAGCUCGCAGUCAAG”, the binding signal (log2 fold change) is -0.0109. In the case of “GGUCACGUCUCAAUCAACUCAAGUCCAGGAGUUUACUCCUGUUUUUUCAACAGCUCGCAGUCAAG” it was -0.112. In the case of “GGUCACGUCUCAAUCAACUCAAACGAGGGGGGGAAAACCCCUUUGCCCUCACAAUCAACAGCUCGCAGUCAAG” it was 0.049; in that of “GGUCACGUCUCAAUCAACUCUAUCUCCAGGGAAACCCCUGGCAAUCUCAACAGCUCGCAGUCAAG”, -0.0672. Take “GGUCACGUCUCAAUCAACUCUACUUCCAGGGAAAACCCUGGCAAUCUCAACAGCUCGCAGUCAAG”: the binding signal (log2 fold change) is 0.0337. As to “GGUCACGUCUCAAUCAACUCUUCGUCAGGAGUUUACUCCUGUAUAUUCAACAGCUCGCAGUCAAG”, the binding signal (log2 fold change) worked out at 0.17. The result for “GGUCACGUCUCAAUCAACUCUACAGAGGGGGGGAAAACCCCUUUACCCUCACAUUCAACAGCUCGCAGUCAAG” reads 0.08; that for “GGUCACGUCUCAAUCAACUCAUUCGAGGGGGGGAAAACCCCUUUACCCUCCACAUCAACAGCUCGCAGUCAAG”, 0.0184. For “GGUCACGUCUCAAUCAACUCCAUCGAGGGGGGGAAAACCCCUUUACCCUCAUUCUCAACAGCUCGCAGUCAAG”, the binding signal (log2 fold change) amounted to 0.101.

Consider “GGUCACGUCUCAAUCAACUCAACUCCAGGAGUUUCCUCCUGCAAUGUCAACAGCUCGCAGUCAAG”, for which the binding signal (log2 fold change) came to 0.0348. With “GGUCACGUCUCAAUCAACUCCUCUGAGGGGGGGAAAACCCCUUUACCCUCUUCUUCAACAGCUCGCAGUCAAG”, the binding signal (log2 fold change) was -0.164. In the case of “GGUCACGUCUCAAUCAACUCCCAUGAGGGGGGGAAAACCCCUUUACCCUCCACAUCAACAGCUCGCAGUCAAG” it was -0.274; in that of “GGUCACGUCUCAAUCAACUCCAAAGAGGGGGGGAAAACCCCUUUACCCUCAACCUCAACAGCUCGCAGUCAAG”, 0.316. For “GGUCACGUCUCAAUCAACUCUUCCUCCAGGGAAAUCCCUGGCAAUCUCAACAGCUCGCAGUCAAG”, the binding signal (log2 fold change) came to 0.012.

As for “GGUCACGUCUCAAUCAACUCUUCGCCCAGGGAAAACCCUGGUAAAUUCAACAGCUCGCAGUCAAG”, the binding signal (log2 fold change) is -0.0848. As to “GGUCACGUCUCAAUCAACUCAUUUUCCAGGGAAAUCCCUGGCUAUUUCAACAGCUCGCAGUCAAG”, the binding signal (log2 fold change) was -0.0971. Turning to “GGUCACGUCUCAAUCAACUCUACUUCAGGAGUUUUCUCCUGUUUACUCAACAGCUCGCAGUCAAG”, the binding signal (log2 fold change) turned out to be 0.0653. As for “GGUCACGUCUCAAUCAACUCUAAAGAGGGGGGGAAAACCCCUUUUCCCUCAACAUCAACAGCUCGCAGUCAAG”, the binding signal (log2 fold change) was -0.113. With “GGUCACGUCUCAAUCAACUCUUUCCCCAGGGAAAUCCCUGGUAUAUUCAACAGCUCGCAGUCAAG”, the binding signal (log2 fold change) was -0.0125. For “GGUCACGUCUCAAUCAACUCUAUCUCCAGGGAAAGCCCUGGUUUUCUCAACAGCUCGCAGUCAAG”, the binding signal (log2 fold change) was -0.282.
